Measured values as given in PubChem BioAssay AID651820 (National Center for Advancing Translational Sciences (NCATS), 2012).
Values joined by “and” are separate entries in the source; they are usually repeats but may differ in a detail not shown here. Equal entries are not always repeated. Among all 340,000 compounds or so, about 12,000 (3.5%) were called active. Inconclusive means that the source gave no clear call. Such entries were picked first, then a sample of the others. Calls follow the shape of the dose curve; as a rule, active = well fitted inhibition curve with a large enough effect; inconclusive = small, poorly fitted or top-dose-only effect, or another doubt; inactive = no such curve, though single readings can be large or run the other way. Where the call is inconclusive, the potency comes from a doubtful curve fit.

Test: qHTS Assay for Inhibitors of Hepatitis C Virus (HCV)
Conditions: Huh7.5.1 HCVcc-Cre (HCVcc is cell-culture hepatitis C virus) infection, luciferase reporter, 44 h; series mostly up to 41.8 µM
Outline: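 Infectious HCV cell culture screen: compound-treated cells (1,000/well, pre-plated 4 h) are infected with HCVcc-Cre at roughly 0.5 moi and grown 44 h. Infection is quantified by luciferase signal after 15 min substrate incubation at room temperature.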
Potency is read from the fitted curve at half-maximal effect; tags tell the direction and shape of the fitted curve.

Compound	Potency
CC(C)(O)C#Cc1ccc(CN2CCCC(CO)(Cc3cccc(Cl)c3)C2)cc1 (stereo not drawn)	inconclusive: 31.6 µM [inhibitor, single point]
O=C(CCCc1nc(-c2ccc(Cl)cc2)no1)NC1CCCCC1	active: 7.08 µM
CCc1nn(CC(=O)NCCc2ccc(OC)cc2OC)c(=O)c2cc3occc3n12	inconclusive: 3.98 µM [inhibitor, partial curve]
COc1cc2c(=O)n(CCC(=O)NCC3CCCO3)c(=O)n(CC(=O)Nc3ccccc3C)c2cc1OC (stereo not drawn)	inconclusive: 11.2 µM [inhibitor, single point]
O=C(CSc1nnc(NC2CCCCC2)s1)NN1C(=O)NC2(CCCCC2)C1=O	inactive
COc1cc(NC(=O)CN2C(=O)NC(c3ccccc3)(c3ccccc3)C2=O)c(C)cc1[N+](=O)[O-]	inconclusive: 1.26 µM [inhibitor, partial curve]
O=C(Nc1ncc(Br)s1)C(Cc1ccccc1)n1cccc1 (stereo not drawn)	inactive
CCc1ccccc1NC(=O)CN(C)C(=O)Cn1ncc(Cl)c(Cl)c1=O	active: 2.82 µM
Cc1cc(C)cc(OCCCn2ccnc2)c1	inactive
COc1ccccc1NC(=S)N(Cc1cccnc1)Cc1ccccc1Cl	inconclusive: 31.6 µM [inhibitor, single point]
COc1cc(NCC(=O)Nc2cccc(S(=O)(=O)N3CCCCC3)c2)cc(OC)c1OC	inconclusive: 0.501 µM [inhibitor, full curve, poor fit]
COc1ccccc1C(C)NS(=O)(=O)c1ccc(Cl)nc1 (stereo not drawn)	inconclusive: 1 µM [inhibitor, full curve, poor fit]
CCn1cnc2cc(NCc3nc4ccccc4n3Cc3ccccc3)ccc21	inactive
CCc1nc(SCC(=O)Nc2ccccc2Cl)n[nH]1	inactive
Cc1ccccc1OCC(=O)NNC(=S)NC(=O)c1ccco1	inconclusive: 7.94 µM [inhibitor, partial curve]
O=S(=O)(c1ccc(F)cc1)n1ccc2cccnc21	inconclusive: 12.6 µM [inhibitor, single point]
CCCCC(=O)NC(c1cccc([N+](=O)[O-])c1)c1c(OC(C)=O)ccc2ccccc12 (stereo not drawn)	inconclusive: 31.6 µM [inhibitor, single point]
Cc1cc(OC(C)C(=O)NCC2CCC(C(=O)O)CC2)c2c(C)c(Cc3ccccc3)c(=O)oc2c1 (stereo not drawn)	inconclusive: 0.501 µM [inhibitor, full curve]
COc1c(F)c(F)c(C(=O)Nc2ccc(N3CCN(Cc4ccccc4)CC3)cc2)c(F)c1F	inconclusive: 2.24 µM [inhibitor, full curve]
CC(C)(C)NC(=O)COC(=O)c1snc(C(=O)NC2CCCCC2)c1N	active: 7.08 µM
Cc1cccc(OCC(=O)NCC(=O)N/N=C/c2ccc(O)cc2O)c1	inconclusive: 31.6 µM [inhibitor, single point]
CCOC(=O)c1c(/N=C/N(C)C)sc(C(=O)OC)c1C	inconclusive: 0.708 µM [inhibitor, full curve, poor fit]
Cc1csc2ncnc(NCCc3ccccn3)c12	active: 7.08 µM

Compound	Potency
CCOP(=O)(Cc1ccc(C(C)(C)CC(C)=O)o1)OCC	inactive
COc1cccc(CN(C)C(=O)c2ccc(Cl)c(S(=O)(=O)N3CCCCCC3)c2)c1OC	inconclusive: 11.2 µM [inhibitor, partial curve]
CN1CCCC(CC2Oc3ccccc3Sc3ccccc32)C1 (stereo not drawn)	active: 11.2 µM
CCOc1ccc2[nH]cc(S(=O)(=O)c3ccc(Cl)cc3)c(=O)c2c1	inconclusive: 12.6 µM [inhibitor, partial curve]
CCC(=O)/C=C1/Sc2ccc(OC)cc2N1CCO	inactive
C/C(=C\c1ccc(N(C)C)cc1)[N+](=O)[O-]	inconclusive: 31.6 µM [inhibitor, single point]
O=C(c1noc2c1CCCCC2)N1CCN(C(c2ccccc2)c2ccccc2)CC1	inconclusive: 31.6 µM [inhibitor, single point]
COc1cc(NC(=O)c2csc(N)n2)cc(C(=O)Nc2cccc(C(F)(F)F)c2)c1	inconclusive: 8.91 µM [inhibitor, single point]
COCCNC(=O)Nc1ccc2nc(-c3ccco3)c(-c3ccco3)nc2c1	inconclusive: 11.2 µM [inhibitor, partial curve]
Cc1oc2c(Cl)c(Cl)c(O)c(CN(C)C)c2c1C(=O)c1ccc(Cl)cc1	inconclusive: 10 µM [inhibitor, partial curve]
Cc1sc(NC(=O)c2cc(-c3ccc(Cl)cc3)nc3ccccc23)c(C(N)=O)c1C	inconclusive: 3.16 µM [inhibitor, full curve]
Cc1cccc(OP(=O)(Oc2cccc(C)c2)OC(c2ccccc2)C(F)(F)F)c1 (stereo not drawn)	inconclusive: 12.6 µM [inhibitor, partial curve]
Cc1cc(C)c(NC(=O)C(C)c2cccc(C(=O)c3ccccc3)c2)c(C)c1 (stereo not drawn)	inconclusive: 31.6 µM [inhibitor, single point]
CC(=O)N1CC(C)Oc2ccc(S(=O)(=O)Nc3ccc(Cl)cn3)cc21 (stereo not drawn)	inconclusive: 22.4 µM [inhibitor, single point]
O=C(Nc1ccc(F)cc1)Nc1sccc1-c1nc2ccccc2s1	inconclusive: 3.55 µM [inhibitor, single point]
Cc1nc(NC(=O)c2ccccc2)sc1-c1csc(NCCc2ccccc2)n1	active: 10 µM
Cc1ccc(C(=O)NN2C(=O)C3C4C=CC(C4)[C@@H]3C2=O)cc1 (stereo partly drawn)	inactive
CCOc1ccc(NC(=O)CN(C)C(=O)c2ccc(N3CCCC3)c([N+](=O)[O-])c2)cc1OCC	inconclusive: 7.94 µM [inhibitor, partial curve, poor fit]
COc1ccccc1N1CCN(C(=O)c2ccc(S(=O)(=O)N3CCCCCC3)cc2)CC1	inconclusive: 11.2 µM [inhibitor, partial curve] and inconclusive: 10 µM [inhibitor, partial curve]
O=C(Nc1ccc([N+](=O)[O-])cc1)Nc1ccc(OC(F)F)c(Cl)c1	inconclusive: 7.08 µM [inhibitor, partial curve]
Cn1nc(C(=O)NCc2cccs2)c2ccccc2c1=O	inactive
Cc1ccc(N(C)C(=O)Oc2cccc3ccc(C)nc23)cc1	inconclusive: 12.6 µM [inhibitor, single point]
CCCOc1ccc(/C=N/NC(=O)C2CCCN2S(=O)(=O)c2ccc(Cl)cc2)cc1 (stereo not drawn)	inconclusive: 2.51 µM [inhibitor, full curve, poor fit]

Compound	Potency
CCOc1ccc(S(=O)(=O)Nc2ccc(S(=O)(=O)Nc3cc(OC)ccc3OC)cc2)cc1	inconclusive: 10 µM [inhibitor, partial curve]
COc1ccc(C2CC(c3ccc(Br)cc3)=NN2C(=O)CN2CCCC2)cc1 (stereo not drawn)	active: 10 µM
CCOC(=O)C1CCN(C(=O)COC(=O)/C=C/c2ccc([N+](=O)[O-])cc2)CC1	inconclusive: 25.1 µM [inhibitor, single point]
CCOC(=O)c1cc(C#N)c(N2CCCNCC2)nc1C(F)(F)F	active: 15.8 µM
CN(CC(=O)Nc1ccccc1Br)C(=O)c1ccccc1OCc1ccccc1Cl	inconclusive: 11.2 µM [inhibitor, partial curve]
O=C(Nc1ccccc1)C1=C(c2ccccc2)S(=O)(=O)CCS1(=O)=O	inconclusive: 12.6 µM [inhibitor, partial curve]
O=c1c(O)cccc2cc(O)c(O)c(O)c12	inactive
COc1cc(Cl)ccc1OCc1cc(C(=O)NCCCN2CCCC2=O)no1	inactive
Clc1ccccc1Cn1c(/C=C/c2ccco2)nc2ccccc21	inconclusive: 31.6 µM [inhibitor, single point]
O=C(CSc1nc(-c2ccccc2)c(-c2ccccc2)[nH]1)NCCN1C(=O)CSC1=O	inconclusive: 31.6 µM [inhibitor, single point]
CCOc1ccccc1C(=O)N1CCN(C(c2ccccc2)c2ccccc2)CC1	inconclusive: 11.2 µM [inhibitor, partial curve]
Cc1ccc(C(=O)Nc2cc(Cl)ccc2N2CCCCC2)s1	inconclusive: 0.501 µM [inhibitor, full curve, poor fit]
CCOC(=O)c1sc(NC(=O)c2cc(-c3ccccc3C)nc3ccccc23)c(C#N)c1C	active: 7.08 µM
CC(C)(C)OC(=O)N1CCC[C@H]1c1nnc(SCc2ccc(Cl)cc2Cl)o1	inconclusive: 5.62 µM [inhibitor, single point]
Cc1cccc(NC(=O)N(Cc2cc3cc(C)ccc3[nH]c2=O)CC2COCCO2)c1 (stereo not drawn)	inactive
Cc1cc(C2N=C(N)Nc3nc4ccccc4n32)c(C)n1-c1ccccc1Cl (stereo not drawn)	inactive
C=CCc1cccc(/C=N/NC(=O)CNc2cccc3ccccc23)c1O	inconclusive: 31.6 µM [inhibitor, single point]
CC(OC(=O)c1cccc(NS(C)(=O)=O)c1)C(=O)Nc1ccc2c(c1)OCO2 (stereo not drawn)	active: 7.08 µM
CSCCC(NC(=O)COc1ccccc1)C(=O)N1CCN(c2ccccc2Cl)CC1 (stereo not drawn)	inconclusive: 14.1 µM [inhibitor, single point]
CCCNC(=O)c1cn(CC)c2cc(N3CCN(C(=O)c4ccco4)CC3)c(F)cc2c1=O	active: 10 µM
O=c1[nH]c2ccccc2n1CCC1CCCCC1	inactive
CCCOc1cccc(C(=O)Nc2cc(NC(=O)c3ccco3)ccc2OC)c1	inconclusive: 10 µM [inhibitor, partial curve] and inconclusive: 4.47 µM [inhibitor, partial curve]
